Measured values published in publication PMC4336329 (PLoS ONE, 2015).
The whole screen tested about 310,000 compounds, of which about 2,200 (0.71%) showed an effect of 50% or more. The effect is printed as a negative number. The list shows a part of the results.

Biological target: human ether-à-go-go-related gene (hERG) potassium channel (human, UniProt Q12809)
Test: primary screen, population patch clamp on CHO cells stably expressing hERG

Sequence of human ether-à-go-go-related gene (hERG) potassium channel (Q12809 whole entry, looked up): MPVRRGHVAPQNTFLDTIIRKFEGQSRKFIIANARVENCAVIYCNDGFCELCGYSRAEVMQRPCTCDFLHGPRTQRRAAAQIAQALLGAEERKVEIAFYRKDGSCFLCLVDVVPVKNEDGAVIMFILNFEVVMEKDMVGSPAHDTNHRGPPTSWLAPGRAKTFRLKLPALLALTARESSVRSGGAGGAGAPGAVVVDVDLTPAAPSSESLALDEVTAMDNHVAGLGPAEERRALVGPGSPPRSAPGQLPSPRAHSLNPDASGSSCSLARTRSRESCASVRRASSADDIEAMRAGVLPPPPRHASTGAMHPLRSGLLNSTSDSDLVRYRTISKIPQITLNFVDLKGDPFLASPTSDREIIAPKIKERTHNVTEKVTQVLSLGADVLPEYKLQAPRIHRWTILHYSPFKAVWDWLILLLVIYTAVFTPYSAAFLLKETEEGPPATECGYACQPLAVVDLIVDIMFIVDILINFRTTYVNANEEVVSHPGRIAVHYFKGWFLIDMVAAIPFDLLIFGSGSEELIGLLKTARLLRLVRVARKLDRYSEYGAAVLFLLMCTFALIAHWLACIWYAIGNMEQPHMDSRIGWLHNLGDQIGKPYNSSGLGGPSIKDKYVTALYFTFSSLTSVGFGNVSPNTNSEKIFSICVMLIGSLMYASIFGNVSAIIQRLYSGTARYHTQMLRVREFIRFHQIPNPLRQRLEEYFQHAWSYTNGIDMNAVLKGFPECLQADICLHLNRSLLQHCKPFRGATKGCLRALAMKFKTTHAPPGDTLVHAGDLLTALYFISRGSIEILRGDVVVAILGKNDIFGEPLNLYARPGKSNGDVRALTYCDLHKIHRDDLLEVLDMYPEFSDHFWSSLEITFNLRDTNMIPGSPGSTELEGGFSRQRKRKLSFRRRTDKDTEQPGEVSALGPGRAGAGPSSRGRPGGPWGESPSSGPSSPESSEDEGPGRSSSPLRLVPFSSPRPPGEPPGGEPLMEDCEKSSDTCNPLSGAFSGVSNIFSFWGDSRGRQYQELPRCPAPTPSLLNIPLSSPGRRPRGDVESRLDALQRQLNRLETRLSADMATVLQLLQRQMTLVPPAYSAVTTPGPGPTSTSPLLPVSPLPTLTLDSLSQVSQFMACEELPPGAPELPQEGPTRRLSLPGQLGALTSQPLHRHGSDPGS

SMILES	hERG current change (%, negative = inhibition) at 1uM
COc1ccc(-c2nc3ccccc3c(=O)n2CCOc2c(C)cccc2C)cc1	6.35%
COc1ccc(C(C)=O)cc1COC(=O)c1ccc(OCc2c(C)noc2C)cc1	8.2%
CN(CCOc1ccc(Cl)cc1)CC(O)c1ccccc1.O=C(O)C(=O)O (centres unmarked)	-7.13%
CCn1c(=O)n(CC)c2cc(N3CCCC3)c(NC(=O)c3ccccc3C)cc21	10.4%
Cc1c(NC(=O)CSc2nnnn2C)c(=O)n(-c2ccccc2)n1C	3.14%
C=CCNC(=O)CN1CCC(O)(c2ccccc2)CC1	8.21%
Cn1c(CCN2CCCCC2)nc2cc(NC(=O)COc3ccc([N+](=O)[O-])cc3)ccc21	-14.2%
Cc1cc(SCC(=O)NC2(C#N)CCCCC2)nc2c(C)cccc12	8.51%
CCCc1cc(C(=O)Nc2ccc(C(=O)c3ccc(C)cc3)cc2)n(C)n1	5.73%
Cc1cccc(Sc2c([N+](=O)[O-])ncn2C)c1	18.2%
Cc1nnc(NC(=O)c2ccncc2)s1	12.7%
CCCn1c(SCC(=O)N2CCN(C(C)=O)CC2)nc2sc3c(c2c1=O)CCC3	-0.281%
O=C(COC(=O)/C=C/c1cccc(F)c1)Nc1ncccn1	5.94%
O=C(NC1CCCCC1)c1cc(S(=O)(=O)N2CCCCC2)ccc1N1CCOCC1	2.87%
COC(=O)c1ccc2c(=O)sc(N3CCC(C(N)=O)CC3)nc2c1	6.13%
CCNC(=O)C12CCC(C)(C(=O)C1Br)C2(C)C (centres unmarked)	16.8%
CCN(CC)C(=O)COc1ccc(/C(C)=N/Nc2ncc(Cl)cc2Cl)cc1	10.1%
O=C(Cc1csc(N2CCOCC2)n1)N/N=C/c1ccccc1C(=O)O	17.3%
O=C1CCCN1c1ccc(S(=O)(=O)Nc2ccc3c(c2)OCCO3)cc1	16.7%

SMILES	hERG current change (%, negative = inhibition) at 1uM
COc1ccc(CN2CC(=O)N3[C@H]4c5ccccc5OC[C@@H]4[C@H](c4ccccc4)[C@]3(C)C2=O)cc1	10.9%
COCCN1C(=O)c2oc3cc(C)c(C)cc3c(=O)c2C1c1cccc(O)c1 (centres unmarked)	16.6%
COc1ccc(NC(=O)c2cc([N+](=O)[O-])ccc2NC(=O)CNC2CCCCC2C)c(OC)c1 (centres unmarked)	-78.8%
OCC(O)C1OC(Nc2ccc(Cl)cc2)C(O)C1O (centres unmarked)	9.71%
Cc1ccc(NC(=O)c2nc(C)n(-c3ccc([N+](=O)[O-])cc3)n2)cc1	-0.188%
COc1ccc(C(=O)N2CCCC(c3ccccc3)=N2)cc1	6.92%
C/C=C/c1ccc2c(c1)OCO2	15%
Cc1cccc(N2C(=O)CS/C2=N\NC(=O)c2ccc(Cl)cc2)c1C	8.56%
Cc1ccc2c(c1)C(c1ccccc1)C(=O)O2 (centres unmarked)	5.4%
C(=C1/CCCC2=C1Nc1ncnn1C2c1ccccc1)/c1ccccc1 (centres unmarked)	-0.632%
COc1ccc(-n2c(O)c(/C=C3\C=Nc4ccc(Br)cc43)c(=O)[nH]c2=O)c(OC)c1	8.82%
CS(=O)(=O)Nc1ccccc1C(=O)OCC(=O)NC1CC1	12.2%
CCOC(=O)N(CC)c1ccc(C(O)(C(=O)OC)C(F)(F)F)cc1 (centres unmarked)	6.8%
COC(=O)c1ccc(NC(=O)C(=O)c2cccn2C)cc1	13.4%
CC12CCC(=O)N1C(C(=O)Nc1nc3c(F)cc(F)cc3s1)CS2 (centres unmarked)	2.27%
COc1cc(C=C2C(=O)NC(=O)NC2=O)ccc1O	13.7%
N#Cc1c(N(CCO)CCO)nc(N)c2c(N)nc3c(c12)CC(=O)N3Cc1cccs1	-5.23%
CCC1(C)Cc2ccccc2-c2nc(NCCO)n(-c3ccccc3)c(=O)c21 (centres unmarked)	6.09%
CN(CC(=O)Nc1ccc(Cl)c(C(F)(F)F)c1)C(=O)CNC(=O)C1CCCCC1	6.12%

SMILES	hERG current change (%, negative = inhibition) at 1uM
CCCCC(=O)Nc1ccc(C(=O)Nc2cc(C(F)(F)F)ccc2Cl)cc1	15.9%
COc1cccc(NC(=S)NNC(=O)Cn2nc(C(F)F)cc2C(F)F)c1	13%
CCOC(=O)c1ccc(-n2c(CN3CCN(CC)CC3)nc3ccc([N+](=O)[O-])cc3c2=O)cc1	-1.41%
CCCn1c(=O)c2[nH]c(-c3ccc(S(=O)(=O)O)cc3)nc2n(CCC)c1=O	8.92%
O=C(CCN1CCOCC1)c1ccc(Cl)cc1	11.1%
O=C(c1nc2ccccc2s1)N1CCN(c2ccccn2)CC1	3.19%
CCOC(=O)c1c(N)sc2c1CCCC2	15.1%
O=C(NCc1ccccn1)C1CCN(S(=O)(=O)c2ccccc2F)CC1	7.3%
CN(CC(=O)Nc1ccc(Cl)c(C(F)(F)F)c1)C(=O)CCCNC(=O)c1ccc(Cl)cc1	0.806%
COCCNC(=O)Cc1c(C)c2c(cc(C)c3c(C)coc32)oc1=O	-11.9%
O=c1cc(-c2ccc(O)c(O)c2)oc2cc(O)cc(O)c12	17.6%
O=C(Nc1ccccc1C(=O)NC1CCCC1)NC1CCCC1	6.29%
COc1ccc(OCCOc2cccc(C=C3C(=O)NC(=O)NC3=O)c2)cc1	14.8%
Cc1ccc(-c2cc(C(=O)Nc3c(C)n(C)n(-c4ccccc4)c3=O)[nH]n2)c(O)c1C	0.312%
Cc1ccc(S(=O)(=O)Nc2nc(N)n(-c3ccccc3)n2)cc1	15.5%
Cn1nc(C(=O)NC2CCCC2)c2ccccc2c1=O	18.7%
COC(=O)Cc1ccc(NC(=S)NCc2ccccc2OC)cc1	20.5%
COc1cc(/C=N/NC(=O)Cn2cnc3c2c(=O)n(C)c(=O)n3C)ccc1O	18%
